72 sequences from publication PMC10726135 can be followed below.

The other results are listed elsewhere or left out. At the low end of the ranking, values are background and their order means little. The protein was read in a cell extract, so binding may be indirect.

The test concerns the target T1, HNF4alpha8 (COS-7 nuclear extract) (UniProt P41235-5).
T1 sequence: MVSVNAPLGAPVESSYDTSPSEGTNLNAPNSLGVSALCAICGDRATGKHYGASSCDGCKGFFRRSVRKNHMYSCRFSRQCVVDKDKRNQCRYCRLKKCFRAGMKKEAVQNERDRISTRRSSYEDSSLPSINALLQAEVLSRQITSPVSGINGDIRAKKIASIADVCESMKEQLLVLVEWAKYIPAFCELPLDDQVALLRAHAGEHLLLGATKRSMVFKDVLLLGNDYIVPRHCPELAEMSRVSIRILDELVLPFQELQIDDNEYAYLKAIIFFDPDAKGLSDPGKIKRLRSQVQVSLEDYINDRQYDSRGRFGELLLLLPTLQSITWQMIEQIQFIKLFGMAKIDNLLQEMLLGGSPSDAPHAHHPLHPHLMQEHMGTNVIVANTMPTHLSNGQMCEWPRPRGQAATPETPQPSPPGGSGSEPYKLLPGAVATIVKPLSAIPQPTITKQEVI
In words: protein-binding microarray. Conditions: COS-7 nuclear extract on double-stranded Agilent 4x180k PBM; binding buffer, salt, pH and temperature not given; high values mean tight binding; double strand, one strand shown; sequences stand for … in …GCCTAGGGAGATTAGAGTATCGGTCGA
With TTGGGATCAGACACGTGGGACCATGAGTAC, the binding signal (log2 normalized intensity) was 1.13.

For the sequence CCACTATTCATAAAGTTCTCTGGCAAATAT, the binding signal (log2 normalized intensity) was -0.0389.

On to TTCACCCGCGCCCAGCGGTTCCGGGCGGCA, for which the binding signal (log2 normalized intensity) was -1.42.

As to ACTCTACAACAAAGGAAATGAAGCAACACT, the binding signal (log2 normalized intensity) was -1.36.

Regarding TGACAAAGTCCATCTGGGCAAGGTGTCAAC, the binding signal (log2 normalized intensity) turned out to be 2.5.

Regarding CATGCAATCACACTAATCTGTCAGAAAACC, the binding signal (log2 normalized intensity) is -0.962.

Take GCAGAAGGGATGGGAACCGACCTTTGGTTC: the binding signal (log2 normalized intensity) was found to be 6.11.

Consider GAAGGACACTTAGAGATAAGGTAACAGGCC, for which the binding signal (log2 normalized intensity) is -1.23.

With TGCGAGCGCCTTGCGAGCGTACGCAGGGCG, the binding signal (log2 normalized intensity) was -1.33.

On to ATCAGGAGACTGGAGAGACCAAAGGGTGAA, for which the binding signal (log2 normalized intensity) stood at 0.676.

For the sequence CCTCTGATTTGCTGATCCTATTTACCTGCC, the binding signal (log2 normalized intensity) was found to be 0.0727.

As for ATTCTTTCCCCTCCCTTCCACCTTTGCCCT, the binding signal (log2 normalized intensity) amounted to 6.61.

With TGTCAGGAACAACTTCGGGAATCTGACCTT, the binding signal (log2 normalized intensity) turned out to be 4.3.

Take CAATGACCTTTGACCCTTCTCTGGGAGAAA: the binding signal (log2 normalized intensity) was found to be 8.44.

Regarding ATGCTTCCTACACGTGCTCTACTAGGCAGT, the binding signal (log2 normalized intensity) is -1.26.

Consider GTAGAGACCTGTCTTCCTGGTGACCTTTGT, for which the binding signal (log2 normalized intensity) was 7.95.

Consider GCATATTTAACTTGGCAAGGGGAGGCACTC, for which the binding signal (log2 normalized intensity) is -1.22.

As for ACAAAGGTCACACTCCTGTGCAAACATCTG, the binding signal (log2 normalized intensity) stood at 1.27.

Turning to GTTCTGTACTTTGGAACCTGAAAGAGCAAC, the binding signal (log2 normalized intensity) was 4.7.

Consider GAATGTGTGCTGGCCTGGTTCCTTCTCAGT, for which the binding signal (log2 normalized intensity) stood at 0.301.

TCTCAGTAGACTAACGTATGGACTTTCTGA: the binding signal (log2 normalized intensity) amounted to 3.52.

As to TCAGCCGGGGAAGGTGCAGGGCTACTGTGG, the binding signal (log2 normalized intensity) is -1.31.

For the sequence GGATTGATTAGATAACATCTGGACTTTACA, the binding signal (log2 normalized intensity) worked out at 3.97.

On to TAATCTCCAAGTAACTGAAACTACAAAAGC, for which the binding signal (log2 normalized intensity) was -1.35.

TATCAGTAGGTACGTTTGTGATACACCTTG: the binding signal (log2 normalized intensity) was determined as 1.43.

Turning to CTACTATGTGCCAGACACTGCTCTAGGCAT, the binding signal (log2 normalized intensity) was -1.23.

Consider AACTTTGTAACTAACAACTGACCTTGCAGG, for which the binding signal (log2 normalized intensity) turned out to be 2.3.

As for ACGTGTTTCCAGGCAAGGAATTTGGAATTC, the binding signal (log2 normalized intensity) amounted to 2.23.

Consider TATAGGTGTTTATAAAGTTGGGAAAAGTAA, for which the binding signal (log2 normalized intensity) was determined as 0.612.

Regarding GTCAAACAAAAGAAAATGTGCCCTTTGGAC, the binding signal (log2 normalized intensity) was 7.26.

As for CAACGGCTCTGCATATGCCAACAGGTGCTC, the binding signal (log2 normalized intensity) is -1.34.

With TCCTTGTACCTGCGACTGAGCCCTAAGAAA, the binding signal (log2 normalized intensity) is -1.35.

Turning to ACCGGTCTTTCCACTTGGGCTTCCTCATCT, the binding signal (log2 normalized intensity) was -1.09.

For the sequence GACAAACAATAGATAGGACAGTGGTCTTTA, the binding signal (log2 normalized intensity) is -0.358.

For the sequence TTGGACTTCAGCCCAGGCTGATTATTCGTT, the binding signal (log2 normalized intensity) stood at 2.86.

Regarding TTGCCCACCAATGATCAAAGGTTAGTCTTA, the binding signal (log2 normalized intensity) was 4.52.

For CCCGCCTTTGACACAGGCGACCTTCGCTCG, the binding signal (log2 normalized intensity) was determined as 6.06.

On to GGGTTAGGGTTAGGGTAGGGTTAGGGTTAG, for which the binding signal (log2 normalized intensity) was 1.2.

With CCATGAGTACCAGGTCAAAAGTTCAAACTT, the binding signal (log2 normalized intensity) was found to be 4.46.

Take AGCCCCCTTTCCCTTATCTTTGTTATCTGT: the binding signal (log2 normalized intensity) was 2.37.

With CACAAGCTTCCCTTTCTACTGCCAGCCAGG, the binding signal (log2 normalized intensity) is -1.31.

For the sequence TCCAAACCGGTCTTTCCACTTGGGCTTCCT, the binding signal (log2 normalized intensity) is -1.35.

TTTAGCAACTGGTATGTTAGATTAGTGTGC: the binding signal (log2 normalized intensity) came to 1.2.

GGGGCCCCATCGACCTTTGCTCCCGACTCT: the binding signal (log2 normalized intensity) came to 8.88.

Turning to TATGTGACATGGACATTCTATGGAATACAG, the binding signal (log2 normalized intensity) was -0.226.

For the sequence TTTGTTCCTAGCCACCATGCTCGGCTGCCT, the binding signal (log2 normalized intensity) was -1.27.

Regarding AAGGAATGTAAGATGTTTGGGCGGGGAAAA, the binding signal (log2 normalized intensity) was -0.993.

Consider CTCCCTTCCACCTTTGCCCTCCAAACTGAG, for which the binding signal (log2 normalized intensity) was found to be 4.48.

For the sequence CGCTCCTCCCACGTCGCTGCCGCAGATCCC, the binding signal (log2 normalized intensity) is -1.28.

As to CAATATCACATACCAGTAAAAACAACTGCC, the binding signal (log2 normalized intensity) was -1.3.

In the case of AGGCCCAGGGCAAGGACTCTAAAGGGAATA, the binding signal (log2 normalized intensity) was -1.36.

With CTAGAAACAGAGCCCAAGGCAAAGCAGATG, the binding signal (log2 normalized intensity) is -1.3.

As for GTCCGCCACTAGCAACAGCTGCAGTGAAAT, the binding signal (log2 normalized intensity) is -1.32.

For TACTTTTGCTCTGTTGAAGAATAAGACCGA, the binding signal (log2 normalized intensity) amounted to 0.259.

As for AGTCTGGAGGGGTGCGAAGGTCGAGGCCAG, the binding signal (log2 normalized intensity) is 3.39.

In the case of GGCAAGTATGGTAAGGTCGACCTTTAAACG, the binding signal (log2 normalized intensity) came out at 6.95.

As for AGGGAGGAGGGGAAGAAAGGAATGTGCCTG, the binding signal (log2 normalized intensity) was -1.31.

As to CTGGGCCTTAAAGCATGACAAAATAACGAA, the binding signal (log2 normalized intensity) was -1.27.

Regarding AGGCAACAATGCCTTGTGTACTGAGCAGGG, the binding signal (log2 normalized intensity) was -0.0081.

For CTTCTTTGCTTAAGCATAGCAAAAGTGACC, the binding signal (log2 normalized intensity) amounted to 3.13.

Turning to TGCCATTAAACACCTTATTTGGTCATGTTT, the binding signal (log2 normalized intensity) stood at 1.55.

TGTCTTGCTGATAAAGGGTGTGAGAGAGAA: the binding signal (log2 normalized intensity) was -0.25.

Regarding AAACATCAAGACAGGTGAGAGAGCTGCATT, the binding signal (log2 normalized intensity) was -1.16.

Regarding CAGCTGTTCCGTGTTCCAGAGCCTCCAAAG, the binding signal (log2 normalized intensity) was -1.3.

Consider ACCCCAGCCTGCCCTCCTAGGGACAGGTGC, for which the binding signal (log2 normalized intensity) is 2.94.

As for TGTAGAGGCCAGAGGTCGTGTCTCCATTCA, the binding signal (log2 normalized intensity) was 1.62.

For GATAGCTAAACCAGATACGTGGGTCTGGTA, the binding signal (log2 normalized intensity) was -1.27.

Regarding GAATAAAACCTCCCCCAAACCAAAGAGAAA, the binding signal (log2 normalized intensity) was 4.96.

In the case of TTATCATGTGGTATTAACATGTAAATATGA, the binding signal (log2 normalized intensity) was determined as 1.36.

As for ATTGTAATCTTCAGCTGCCTTTTGCCAGGC, the binding signal (log2 normalized intensity) is -0.00915.

Regarding GTTTTCTCTGAGTTTTGAGTGTGTTTCTTG, the binding signal (log2 normalized intensity) worked out at 1.78.

With CTAAAAACATTGTGGAGCTCATGTAAGGTC, the binding signal (log2 normalized intensity) was found to be 1.92.
